Measured values from patent US20250340604A1 (ENKEFALOS BIOSCIENCES, published 2025).

Target: human transferrin receptor (hTfR), form not stated (human, UniProt P02786)
Test: ELISA: hTfR coated at 125 ng/well, concentrated culture supernatant of the fusion, rabbit anti-GCSase and anti-rabbit IgG-HRP, A450; control: supernatant of a non-expressing culture

UniProt P02786, sequence (P02786 89-760 limits assumed): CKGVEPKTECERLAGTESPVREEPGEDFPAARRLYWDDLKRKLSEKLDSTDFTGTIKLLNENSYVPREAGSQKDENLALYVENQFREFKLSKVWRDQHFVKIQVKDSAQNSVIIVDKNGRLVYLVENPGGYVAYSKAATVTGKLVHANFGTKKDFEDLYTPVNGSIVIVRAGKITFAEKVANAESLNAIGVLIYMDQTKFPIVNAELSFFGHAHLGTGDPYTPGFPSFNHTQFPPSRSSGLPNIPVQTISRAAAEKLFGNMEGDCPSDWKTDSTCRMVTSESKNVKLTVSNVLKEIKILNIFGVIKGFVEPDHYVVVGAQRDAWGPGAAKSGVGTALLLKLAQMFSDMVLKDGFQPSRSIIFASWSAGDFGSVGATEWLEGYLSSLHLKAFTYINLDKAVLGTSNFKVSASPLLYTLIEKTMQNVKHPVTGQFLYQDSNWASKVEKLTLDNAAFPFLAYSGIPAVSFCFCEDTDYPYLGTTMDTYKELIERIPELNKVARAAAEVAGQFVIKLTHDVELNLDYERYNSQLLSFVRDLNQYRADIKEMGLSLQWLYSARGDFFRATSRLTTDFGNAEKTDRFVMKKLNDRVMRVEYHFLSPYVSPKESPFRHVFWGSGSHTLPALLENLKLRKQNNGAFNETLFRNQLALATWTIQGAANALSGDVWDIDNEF

binding result: binds
B1: GlcCSase-CYC17 fusion cyclotide (enzyme)
chain: ARPCIPKSFGYSSVVCVCNATYCDSFDPPTFPALGTFSRYESTRSGRRMELSMGPIQANHTGTGLLLTLQPEQKFQKVKGFGGAMTDAAALNILALSPPAQNLLLKSYFSEEGIGYNIIRVPMASCDFSIRTYTYADTPDDFQLHNFSLPEEDTKLKIPLIHRALQLAQRPVSLLASPWTSPTWLKTNGAVNGKGSLKGQPGDIYHQTWARYFVKFLDAYAEHKLQFWAVTAENEPSAGLLSGYPFQCLGFTPEHQRDFIARDLGPTLANSTHHNVRLLMLDDQRLLLPHWAKVVLTDPEAAKYVHGIAVHWYLDFLAPAKATLGETHRLFPNTMLFASEACVGSKFWEQSVRLGSWDRGMQYSHSIITNLLYHVVGWTDWNLALNPEGGPNWVRNFVDSPIIVDITKDTFYKQPMFYHLGHFSKFIPEGSQRVGLVASQKNDLDAVALMHPDGSAVVVVLNRSSKDVPLTIKDPAVGFLETISPGYSIHTYLWHRQGSGGGSGGGGSGGGGSLE[about 40 residues left out here]
notes: tested as filtered, concentrated HEK293F supernatant; also called glucocerebrosidase-CYC17 fusion; hGCSase-CYC17
